{"source": "the supplement of paper PMC3334620", "note": "Over roughly 33,000 sequences, “E-score (-0.5 to 0.5)” has its median near -0.01; the highest 2% begin near 0.26. The list shows a part of the results."}
{"target": "Ste12 (UniProt P13574)", "assay": "PBM E-score (8-mer binding enrichment) (E-score (-0.5 to 0.5)); higher = stronger / more preferred TF binding; most listed sequences are background and not binding sites", "details": "protein concentration: 200 nM; construct: GST-DNA-binding domain", "method_in_brief": "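The E-score, a modified Wilcoxon-Mann-Whitney statistic, was computed by the Universal PBM Analysis Suite for every ungapped eight-base word pooled with its reverse complement. Scans behind it were normalised with masliner after bound GST-tagged yeast transcription factors were detected with fluorescent anti-GST. The proteins, at about 100-200 nM, had been applied to universal all-10-mer Agilent arrays made double-stranded by primer extension.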"}
{"sequence": "AGACTAAG", "PBM E-score": -0.0373}
{"sequence": "ATTGAATC", "PBM E-score": 0.0395}
{"sequence": "AGAGAAGG", "PBM E-score": -0.185}
{"sequence": "CGCAGCTC", "PBM E-score": -0.0841}
{"sequence": "ATGGGCGA", "PBM E-score": -0.00581}
{"sequence": "ACTATGAA", "PBM E-score": 0.125}
{"sequence": "AGACAAGG", "PBM E-score": -0.0552}
{"sequence": "GTCCGCAA", "PBM E-score": -0.0225}
{"sequence": "ATGGCAGG", "PBM E-score": -0.00832}
{"sequence": "GGAGTCAC", "PBM E-score": -0.178}
{"sequence": "GCCTTTCA", "PBM E-score": -0.125}
{"sequence": "TCGTGGCA", "PBM E-score": -0.0508}
{"sequence": "GCGCTTAA", "PBM E-score": 0.136}
{"sequence": "CGACTTCC", "PBM E-score": -0.201}
{"sequence": "CGGCAGCA", "PBM E-score": -0.0682}
{"sequence": "CGCTAGAA", "PBM E-score": 0.0317}
{"sequence": "ATGGCGGG", "PBM E-score": 0.0897}
{"sequence": "GCGTCTAA", "PBM E-score": 0.126}
{"sequence": "AAATACTC", "PBM E-score": 0.0776}
{"sequence": "AGGTCGCG", "PBM E-score": -0.228}
{"sequence": "CGAGAGGC", "PBM E-score": -0.168}
{"sequence": "ACCTACCA", "PBM E-score": -0.0382}
{"sequence": "AATCAGCG", "PBM E-score": 0.121}
{"sequence": "AACGCCGT", "PBM E-score": -0.106}
{"sequence": "ACACTGGA", "PBM E-score": -0.112}
{"sequence": "GCTGTATA", "PBM E-score": -0.188}
{"sequence": "CGACCTGA", "PBM E-score": 0.0607}
{"sequence": "GATCCCAA", "PBM E-score": -0.0221}
{"sequence": "AAATTCTC", "PBM E-score": 0.105}
{"sequence": "GCATGGGA", "PBM E-score": 0.0202}
{"sequence": "AAATACCT", "PBM E-score": 0.116}
{"sequence": "CCTATTGC", "PBM E-score": -0.0564}
{"sequence": "AACGTCTA", "PBM E-score": -0.189}
{"sequence": "CCATAACG", "PBM E-score": 0.147}
{"sequence": "GGAAAATA", "PBM E-score": 0.255}
{"sequence": "GAGCCTGA", "PBM E-score": -0.0885}
{"sequence": "AAGGAGGA", "PBM E-score": -0.177}
{"sequence": "GAAGGTTA", "PBM E-score": -0.115}
{"sequence": "GCCACTGA", "PBM E-score": -0.0291}
{"sequence": "CCCTTGAG", "PBM E-score": -0.0308}
{"sequence": "ATAACTTC", "PBM E-score": 0.172}
{"sequence": "ACCCTCGG", "PBM E-score": -0.0619}
{"sequence": "CATACTGA", "PBM E-score": -0.124}
{"sequence": "CATTTGTC", "PBM E-score": 0.185}
{"sequence": "GTAGAGGA", "PBM E-score": -0.305}
{"sequence": "GCCAGAGA", "PBM E-score": -0.0798}
{"sequence": "CATGAGGG", "PBM E-score": -0.0555}
{"sequence": "ACTAACTG", "PBM E-score": 0.108}
{"sequence": "GACATACA", "PBM E-score": 0.192}
{"sequence": "AGCTAACG", "PBM E-score": -0.163}
{"sequence": "AGTGATAA", "PBM E-score": 0.0362}
{"sequence": "AAGATTCG", "PBM E-score": 0.128}
{"sequence": "GCTTAAGA", "PBM E-score": 0.0148}
{"sequence": "AAAGCAAG", "PBM E-score": 0.254}
{"sequence": "CAAGGAAC", "PBM E-score": 0.13}
{"sequence": "AGGCCAAA", "PBM E-score": -0.0294}
{"sequence": "CTGTCGAA", "PBM E-score": -0.08}
{"sequence": "CAATGCTA", "PBM E-score": -0.0691}
{"sequence": "CGTTTGCA", "PBM E-score": 0.0337}
{"sequence": "CCGCTCGC", "PBM E-score": 0.207}
{"sequence": "ATATAAGA", "PBM E-score": 0.12}
{"sequence": "ACCCGTTA", "PBM E-score": 0.0925}
{"sequence": "AAATAAGA", "PBM E-score": 0.236}
{"sequence": "GCAGGACA", "PBM E-score": -0.11}
{"sequence": "CCTCGCTA", "PBM E-score": -0.253}
{"sequence": "CTGTTACA", "PBM E-score": 0.378}
{"sequence": "TCAGCCGA", "PBM E-score": -0.0569}
{"sequence": "ACCCATAG", "PBM E-score": -0.126}
{"sequence": "AAGACCTC", "PBM E-score": -0.138}
{"sequence": "CTCAAGGA", "PBM E-score": -0.181}
{"sequence": "AAGCGCTG", "PBM E-score": -0.00277}
{"sequence": "CATAGAAC", "PBM E-score": -0.0408}
{"sequence": "AGATAACA", "PBM E-score": 0.223}
{"sequence": "GTGCTCTA", "PBM E-score": -0.238}
{"sequence": "CAGCTAGA", "PBM E-score": -0.154}
{"sequence": "AACGTTTG", "PBM E-score": 0.0498}
{"sequence": "GAAGATCC", "PBM E-score": -0.217}
{"sequence": "CCCGCGAA", "PBM E-score": 0.171}
{"sequence": "ATCGTAAG", "PBM E-score": 0.0728}
{"sequence": "ACTGCCGC", "PBM E-score": 0.147}
{"sequence": "AGTAAAAC", "PBM E-score": 0.168}
{"sequence": "CGTGCATC", "PBM E-score": 0.0466}
{"sequence": "AACAAATG", "PBM E-score": 0.176}
{"sequence": "CCTTTTAC", "PBM E-score": 0.178}
{"sequence": "ACTTAGAT", "PBM E-score": -0.0771}
{"sequence": "GGACATAC", "PBM E-score": -0.145}
{"sequence": "CTTCCAAA", "PBM E-score": 0.0685}
{"sequence": "CGGAGCTC", "PBM E-score": -0.149}
{"sequence": "CCCATGAA", "PBM E-score": 0.0211}
{"sequence": "ATGCAGAC", "PBM E-score": -0.137}
{"sequence": "TCAGGCAA", "PBM E-score": 0.0795}
{"sequence": "CCCTCTAG", "PBM E-score": -0.228}
{"sequence": "CACAATGA", "PBM E-score": 0.122}
{"sequence": "CAAAATTG", "PBM E-score": 0.0598}
{"sequence": "ATGTAGAG", "PBM E-score": -0.0714}
{"sequence": "ATCCATCG", "PBM E-score": -0.185}
{"sequence": "GATAACGA", "PBM E-score": -0.00637}
{"sequence": "GACTCGCA", "PBM E-score": -0.153}
{"sequence": "AAGTCTGG", "PBM E-score": -0.077}
{"sequence": "ATCATATG", "PBM E-score": -0.0776}
{"sequence": "CAGCAGCA", "PBM E-score": 0.103}
{"sequence": "AGTCTGCA", "PBM E-score": -0.122}
{"sequence": "CCATCTTA", "PBM E-score": 0.127}
{"sequence": "CACAGTAG", "PBM E-score": -0.043}
{"sequence": "CGAGGGAG", "PBM E-score": -0.0694}
{"sequence": "ACTAGTTG", "PBM E-score": -0.0385}
{"sequence": "GTACAGAC", "PBM E-score": -0.237}
{"sequence": "AATCGGTC", "PBM E-score": 0.128}
{"sequence": "CTCAAACC", "PBM E-score": 0.0438}
{"sequence": "AATGGCGG", "PBM E-score": 0.0559}
{"sequence": "ATGCTGCG", "PBM E-score": -0.125}
{"sequence": "CCCTCTGC", "PBM E-score": -0.356}
{"sequence": "CCGATACA", "PBM E-score": 0.174}
{"sequence": "CCATAGCA", "PBM E-score": -0.0413}
{"sequence": "ATAAAACA", "PBM E-score": 0.368}
{"sequence": "ACCTCGTA", "PBM E-score": -0.0905}
{"sequence": "CGCCACAC", "PBM E-score": 0.0927}
{"sequence": "CGGATGAA", "PBM E-score": 0.268}
{"sequence": "CTTTAAAC", "PBM E-score": 0.0682}
{"sequence": "GCTCTTCA", "PBM E-score": -0.0243}
{"sequence": "CATACTCA", "PBM E-score": 0.0427}
{"sequence": "TAGGGGCA", "PBM E-score": -0.132}
{"sequence": "GACTGCGC", "PBM E-score": -0.123}
{"sequence": "AACCCGGC", "PBM E-score": -0.00525}
{"sequence": "AGTCGGGA", "PBM E-score": -0.0346}
{"sequence": "TCGAGCAA", "PBM E-score": 0.0267}
{"sequence": "AGGACATG", "PBM E-score": -0.0929}
{"sequence": "CGACGAGC", "PBM E-score": -0.192}
{"sequence": "ACTGGGGC", "PBM E-score": -0.12}
{"sequence": "CCTTAAGC", "PBM E-score": -0.0937}
{"sequence": "TCGGAGAA", "PBM E-score": 0.00947}
{"sequence": "GATAACCA", "PBM E-score": 0.108}
{"sequence": "CGGTCTAC", "PBM E-score": -0.145}
{"sequence": "AACAATCG", "PBM E-score": -0.0669}
{"sequence": "CGTTAGTA", "PBM E-score": 0.052}
{"sequence": "GGCTGACC", "PBM E-score": -0.162}
{"sequence": "ATAGGCGA", "PBM E-score": 0.0142}
{"sequence": "CAATCCTA", "PBM E-score": -0.00222}
{"sequence": "AGTCGGGG", "PBM E-score": 0.0136}
{"sequence": "AGACCTAG", "PBM E-score": -0.0522}
{"sequence": "AACTAGTG", "PBM E-score": 0.0672}
{"sequence": "CGTCCGAG", "PBM E-score": -0.0853}
{"sequence": "ACGCGGGG", "PBM E-score": 0.177}
{"sequence": "CACTGCTA", "PBM E-score": -0.149}
{"sequence": "CCCCTAGC", "PBM E-score": -0.0779}
{"sequence": "GGCACGCA", "PBM E-score": -0.121}
{"sequence": "ACAGTAAC", "PBM E-score": 0.151}
{"sequence": "ATAGTGCG", "PBM E-score": 0.0362}
{"sequence": "AACACGGA", "PBM E-score": 0.0829}
{"sequence": "CATCTACC", "PBM E-score": 0.131}
{"sequence": "AAGGGCGC", "PBM E-score": 0.034}
{"sequence": "CCGGCCAC", "PBM E-score": -0.188}
{"sequence": "AGGTATGC", "PBM E-score": -0.123}
{"sequence": "ACTAAGTA", "PBM E-score": -0.0288}
{"sequence": "CAGCGTTA", "PBM E-score": -0.0599}
{"sequence": "TAAATAAA", "PBM E-score": 0.228}
{"sequence": "GACAGGTC", "PBM E-score": -0.303}
{"sequence": "GCAGGCGA", "PBM E-score": -0.165}
{"sequence": "CGGACTTA", "PBM E-score": -0.156}
{"sequence": "AGAACTTC", "PBM E-score": -0.154}
{"sequence": "AACTATGG", "PBM E-score": -0.0761}
{"sequence": "GCTAGGCC", "PBM E-score": -0.168}
{"sequence": "AGTATTAT", "PBM E-score": -0.0081}
{"sequence": "TAATGTCA", "PBM E-score": 0.11}
{"sequence": "GAAGATAC", "PBM E-score": 0.172}
{"sequence": "CCCACCCA", "PBM E-score": 0.269}
{"sequence": "AACTAGGA", "PBM E-score": 0.049}
{"sequence": "CTATTTGA", "PBM E-score": 0.141}
{"sequence": "AGGACAGG", "PBM E-score": -0.148}
{"sequence": "AAAGGTTG", "PBM E-score": -0.111}
{"sequence": "CCTGACGC", "PBM E-score": -0.186}
{"sequence": "CAAAAATG", "PBM E-score": 0.182}
